Target: the molecule itself
Assay: mass photometry; purified langerin ECD after mannose-bead affinity and SEC; conditions not told in the text (Supplementary Figure S2C)

B1: Recombinant human soluble Langerin extracellular domain (ECD) (domain or fragment)
chain: not shown
notes: Langerin (CD207, CLEC4K), human, extracellular domain (neck region and C-terminal CRD), […] in Uniprot […]; Expressed from pET30a (GenScript); also called langerin ECD; soluble Langerin ECD
stoichiometry N: 3
